Measured values published in publication PMC4336329 (PLoS ONE, 2015).
Hit rate of the full screen: of about 310,000 compounds, about 2,200 (0.71%) showed an effect of 50% or more. The effect is printed as a negative number. The list shows a part of the results.

target: human ether-à-go-go-related gene (hERG) potassium channel (human, UniProt Q12809); experiment: primary screen, population patch clamp on CHO cells stably expressing hERG
Sequence (Q12809 whole entry, looked up): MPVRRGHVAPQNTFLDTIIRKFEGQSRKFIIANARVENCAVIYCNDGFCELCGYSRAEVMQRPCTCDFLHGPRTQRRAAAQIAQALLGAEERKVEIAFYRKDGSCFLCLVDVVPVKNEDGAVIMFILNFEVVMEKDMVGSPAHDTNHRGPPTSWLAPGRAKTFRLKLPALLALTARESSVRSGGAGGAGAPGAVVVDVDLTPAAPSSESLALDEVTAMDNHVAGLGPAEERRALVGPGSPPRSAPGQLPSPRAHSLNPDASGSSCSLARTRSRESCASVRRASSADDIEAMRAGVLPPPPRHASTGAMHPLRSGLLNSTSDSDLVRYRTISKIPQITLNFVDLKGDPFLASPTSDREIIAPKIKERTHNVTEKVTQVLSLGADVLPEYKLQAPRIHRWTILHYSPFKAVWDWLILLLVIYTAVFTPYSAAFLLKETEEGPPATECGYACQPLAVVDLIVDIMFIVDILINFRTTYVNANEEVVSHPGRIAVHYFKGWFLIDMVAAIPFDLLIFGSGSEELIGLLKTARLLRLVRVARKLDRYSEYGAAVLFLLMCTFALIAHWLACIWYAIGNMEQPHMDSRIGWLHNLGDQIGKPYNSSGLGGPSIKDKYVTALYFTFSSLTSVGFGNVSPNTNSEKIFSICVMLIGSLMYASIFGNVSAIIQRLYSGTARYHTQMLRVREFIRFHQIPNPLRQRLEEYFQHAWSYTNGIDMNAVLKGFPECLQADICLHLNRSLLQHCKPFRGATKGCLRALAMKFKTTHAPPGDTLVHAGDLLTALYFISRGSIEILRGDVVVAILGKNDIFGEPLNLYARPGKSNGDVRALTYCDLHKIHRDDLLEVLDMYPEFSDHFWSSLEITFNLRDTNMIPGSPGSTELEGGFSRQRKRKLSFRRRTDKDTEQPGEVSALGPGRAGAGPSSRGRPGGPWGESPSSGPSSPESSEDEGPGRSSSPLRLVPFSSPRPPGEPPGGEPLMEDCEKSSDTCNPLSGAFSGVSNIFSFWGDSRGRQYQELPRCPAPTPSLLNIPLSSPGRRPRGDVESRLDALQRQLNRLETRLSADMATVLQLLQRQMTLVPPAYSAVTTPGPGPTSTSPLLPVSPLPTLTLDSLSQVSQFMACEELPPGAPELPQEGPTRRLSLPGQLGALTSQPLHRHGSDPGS

| Structure (SMILES) | hERG current change (%, negative = inhibition) at 1uM |
| --- | --- |
| O=C(O)C(=O)O.OCCNCCCCOc1cccc(Br)c1 | 0.273% |
| CC(C)Nc1nc(-c2ccccc2)nnc1-c1ccccc1 | 0.584% |
| Cc1ccc(NC(=O)c2cc3ccccc3o2)cc1 | 16.8% |
| CCN(C(=O)COC(=O)CNS(=O)(=O)c1ccc2ccccc2c1)C1CCCCC1 | -0.0079% |
| COc1ccc2[nH]c3c(c2c1)CCN1C(=O)N([C@@H](C)C(=O)NCC2CCCO2)C(=O)[C@]31C (stereo partly drawn) | 2.2% |
| CC1(C)CC(=O)C2=C(C1)NC(Nc1nc3ccccc3o1)=NC2c1ccccn1 (stereo not drawn) | -5.1% |
| O=C(Cn1cc(/C=C\[N+](=O)[O-])c2ccccc21)Nc1ccccc1 | 8.45% |
| CC1CCCC(C)N1C(=O)COC(=O)Cn1cnc2c1c(=O)n(C)c(=O)n2C (stereo not drawn) | 19.6% |
| CCOC(=O)c1oc2ccc(S(=O)(=O)Nc3ccc4c(c3)n(C)c(=O)n4C)cc2c1C | 2.26% |
| CC(=O)NC(O)C(=O)c1ccccc1 (stereo not drawn) | 19.5% |
| Cc1cc(C2C(C#N)=C(N)Oc3n[nH]c(C)c32)c(C)s1 (stereo not drawn) | 20.4% |
| Cc1cc(=O)[nH]c2c1c(=O)[nH]n2C1CC(C)N(C)CC1C (stereo not drawn) | 12.3% |
| O=C(NCCc1ccccn1)C1CC(=O)N(Cc2ccccc2Cl)C1 (stereo not drawn) | 4.09% |
| O=C(CCN1C(=O)C2CC=CCC2C1=O)NC1CCCCC1 (stereo not drawn) | -1.06% |
| CCCc1c(NC(=O)Nc2ccc(F)cc2)cnn1-c1ccccc1 | 11.9% |
| Cc1ccc(S(=O)(=O)N2CCN(C(=O)COC(=O)c3ccc(Br)o3)CC2)c(C)c1 | 16% |
| CCOc1ccccc1CNC(=O)CCC(=O)N1Cc2ccccc2Oc2ncccc21 | 11.5% |
| CC(=O)Nc1cccc(S(C)(=O)=O)c1 | 8.17% |
| COc1ccc(/C=C/C(=O)c2ccccc2O)cc1CN1CCOCC1 | 10.6% |
| Cc1csc(SCC(=O)Nc2cc(S(=O)(=O)N3CCCC3)ccc2Cl)n1 | 5.78% |
| CC1(C)CC2CC(C)(CN2S(=O)(=O)c2cccc(N)c2)C1 (stereo not drawn) | 11.8% |
| Cc1cccc2sc(NS(C)(=O)=O)nc12 | 17.2% |
| Cc1nnc2n(-c3ccccc3)c(=O)c3c4c(sc3n12)COC(C)(C)C4 | 0.998% |

| Structure (SMILES) | hERG current change (%, negative = inhibition) at 1uM |
| --- | --- |
| C=CCN1CCN(C(=O)c2ccc3c(c2)OCO3)CC1 | 11.7% |
| O=C(COC(=O)c1cccnc1Nc1ccccc1F)NC1CC1 | 7.21% |
| C=CCn1c(-c2cccc([N+](=O)[O-])c2)n[nH]c1=S | 16% |
| CCOC(=O)c1ccc2[nH]c(-c3ccc(S(=O)(=O)F)cc3)cc(=O)c2c1 | 11% |
| Cc1ccc(Oc2ncccc2/C=N/OCc2ccc(Cl)c(Cl)c2)cc1 | 12.6% |
| Cc1cc(SCC(=O)c2cccc([N+](=O)[O-])c2)nc(=O)[nH]1 | 18.5% |
| O=C(CCSCc1ccccc1F)N1CCN(c2ccccn2)CC1 | -6.63% |
| Cl.O=C(NN1C(=O)CSC1=S)c1cccnc1 | 11.9% |
| C/C(=N/NC(=O)c1cccs1)c1cccs1 | 8.98% |
| O=C(CC12CC3CC(CC(C3)C1)C2)NCCN1CCOCC1 | 2.55% |
| Cc1cc(Cn2nc(C(=O)NCc3cccs3)cc2-c2ccccc2)on1 | -11.8% |
| Cc1noc(C)c1COc1ccccc1C(=O)NNC(=O)c1ccccc1F | -4.18% |
| O=C(Cc1ccc([N+](=O)[O-])cc1)N1CCc2ccccc2C1 | -1.71% |
| COc1cc(CNCCO)cc(Br)c1OCc1ccccc1.Cl | -4.71% |
| CCOc1ccc(/C=N/NC(=O)c2ccc(F)cc2)cc1CN1CC2CC(C1)c1cccc(=O)n1C2 (stereo not drawn) | 11.1% |
| COc1ccc(CCN2C(=NC(=O)C(C)C)SC3CS(=O)(=O)CC32)cc1 (stereo not drawn) | 9.19% |
| CCOC(=O)c1cc2c(=O)[nH]ccc2nc1C(F)(F)F | 8.16% |
| CCCCC12CN3CCN(CC(C3)/C1=N\NC(=O)c1ccccc1N)C2 | -15.3% |
| Cc1nc2scc(C)n2c(=O)c1S(=O)(=O)N1CCN(c2ccc(F)cc2)CC1 | 6.86% |
| Cc1ccc(S(=O)(=O)N2CCC(C(=O)Nc3ccc4c(c3)COC4=O)CC2)cc1 | 10.2% |
| O=C(CCc1ccccc1)NNC(=S)NCCc1ccccc1 | 9.98% |
| COc1ccccc1NC(=O)/C=C/c1ccc(OC)c(S(=O)(=O)N2CCOCC2)c1 | 9.09% |
| O=C(CC1C(=O)NCCN1Cc1ccc(-c2ccccc2)cc1)NCc1ccccc1 (stereo not drawn) | 6.77% |

| Structure (SMILES) | hERG current change (%, negative = inhibition) at 1uM |
| --- | --- |
| Cc1ccc(C(=O)Nc2ccc(Br)cc2)cc1S(=O)(=O)Nc1ccccn1 | 13.5% |
| Cc1nc(NCc2cccnc2)c2c3c(sc2n1)CCCC3 | -7.05% |
| CCOC(=O)NC(=O)/C(C=Nc1ccc(Cl)cc1)=C(\C)O | 14.6% |
| COc1ccccc1NC(=O)c1ccc(Br)c(S(=O)(=O)N2CCCC2)c1 | 13.6% |
| O=C(O)c1ccc2c(=O)n3c(nc2c1)/C(=C/c1ccc(Cl)c(Cl)c1)CC3 | 11.5% |
| COc1cccc(-c2cc(C(=O)N3CCN(c4ccc(F)cc4)CC3)no2)c1 | 13.5% |
| Cc1cccc(-n2cc(CN3CCN(c4ccccn4)CC3)c(-c3cccc(F)c3)n2)c1 | 8.32% |
| COC1(C)CC2C(CC1OC(=O)c1cc([N+](=O)[O-])cc([N+](=O)[O-])c1)C2(C)C (stereo not drawn) | 1.1% |
| CCOc1ccc(C2C(C(=O)NC)=C(C)Nc3nc4ccccc4n32)cc1OC (stereo not drawn) | 15.2% |
| O=C(Nc1cccc(S(=O)(=O)NC2=NCCCCC2)c1)c1cc(-c2ccccc2)nc2ccccc12 | 9.54% |
| CCOC(=O)c1c(C)[nH]c(C(=O)N2CCC(C(=O)OCC)CC2)c1C | 16.1% |
| OCC[C@@H]1C[C@H](O)[C@@H](O)[C@]2(CCCCO2)O1 | 20.9% |
| CC(=O)c1cc2c(=O)c3cc(C)ccc3oc2nc1C | -5.19% |
| COCCNC(=S)N(CCc1c(C)[nH]c2ccccc12)Cc1cccnc1 | 7.64% |
| CCc1ccc(N2CC(C(=O)Nc3cc(C)ccc3F)CC2=O)cc1 (stereo not drawn) | 7.97% |
| O=C(NCCOc1ccc(Cl)cc1)C1CC(=O)N(c2ccc3c(c2)OCCO3)C1 (stereo not drawn) | -7.81% |
| O=C(O)Cn1ccc2ccccc21 | 18.2% |
| CCCCOc1ccc(CSC2=NCCN2)cc1[N+](=O)[O-].Cl | -22.3% |
| OCC[C@@H]1C[C@@H](O)[C@H](O)[C@@]2(CCCCO2)O1 | 15.7% |
| CN(C(=O)CSc1nncc2ccccc12)C1CCCCC1 | 14.7% |
| COc1cccc(C(=O)Nc2ncc3c(n2)CC(c2ccc(OC)cc2OC)CC3=O)c1 (stereo not drawn) | 4.75% |
| COc1ccc(/C(=C/Nc2cccc(Br)c2)C(C)=O)cc1OC | 13.6% |
| Cc1noc(N)c1C(=O)Nc1ccc(F)cc1 | 14.6% |

| Structure (SMILES) | hERG current change (%, negative = inhibition) at 1uM |
| --- | --- |
| O=C(Nc1cccc2ncccc12)c1ccc(Br)c([N+](=O)[O-])c1 | 10.3% |
| c1ccc(-c2nc(NCCCN3CCOCC3)c3ccccc3n2)cc1 | 3.18% |
| COc1cc(C)c(Br)cc1S(=O)(=O)NCCCN1CCOCC1 | 10.4% |
| CC(Sc1ccccc1)C(=O)N1CCN(S(=O)(=O)c2ccccc2)CC1 (stereo not drawn) | 2.73% |
| O=C(Nc1cnc2ccccc2c1)c1ccncc1 | 11.6% |
| Cc1sc(NC(=O)C2CCCCC2)c(C#N)c1-c1ccccc1 | 7.6% |
| Nc1cc(=O)[nH]c(SCC(=O)Nc2ccccc2Sc2ccccc2)n1 | 14.2% |
| CC(C)(C)NC(=O)CSc1nnc(Cc2ccccc2)n1CC1CCCO1 (stereo not drawn) | 4.15% |
| O=C(CN1C(=O)NC2(CCCCCC2)C1=O)c1ccc(Cl)s1 | 11.9% |
| COc1ccc(C(=O)c2c(C)c3cc(C)ccc3n2CC(O)CN2CCOCC2)cc1.Cl (stereo not drawn) | -4.77% |
| O=C(Nc1cccc(Cl)c1)Nc1cnccn1 | 14.5% |
| COc1ccc(CN(C)S(=O)(=O)c2nnc(NC(=O)c3ccccc3OC)s2)cc1OC | 18.8% |
| COc1ccc(N2C(=O)C(Cl)=C(NCc3ccccc3)C2=O)cc1 | 5.09% |
| Cc1ccc(NC(=S)NCc2cccs2)c(C)c1 | 17.1% |
| N#CCC(=N)N1CCN(c2ccc(Cl)cc2)CC1 | 2.52% |
| Cc1ccc(SCC(=O)Nc2cccc(-c3nnc(-c4ccco4)o3)c2)cc1 | 5.32% |
| Cc1oc(-c2ccc(F)cc2)cc1-c1nn2c(-c3ccoc3C)nnc2s1 | 18.9% |
| Cc1ccc(NS(=O)(=O)c2cc(C(=O)N3CCOCC3)ccc2C)cc1 | -1.29% |
| CCCNC(=O)Nc1cc(OCC)c(N2CCOCC2)cc1OCC | -4.51% |
| CSc1nc(Sc2ccccc2)c2ccccc2n1 | 10.5% |
| COc1cc(CN2CCCC(CCC(=O)NCc3ccc(C)o3)C2)cc2c1OCO2 (stereo not drawn) | -28.7% |
